According to PubChem BioAssay AID1508624 (National Center for Advancing Translational Sciences (NCATS), 2021):
In all, about 48,000 compounds went through this assay and about 120 (0.25%) were called active. Another 4% or so got no clear call; they are omitted. The call rests on the fitted dose curve; in most records, active means well fitted activation curve with a large enough effect; inconclusive means small, poorly fitted or top-dose-only effect, or another doubt; inactive means no such curve, though single readings can be large or run the other way. The list shows a part of the results.

Test: Primary qHTS for Identification of Small Molecule Activators of Huntingtin-Antisense Promoter Activity; further: nearly all actives have a fitted effect of over 55% in size
Settings: HEK293 HTT-AS promoter firefly luciferase reporter, 24 h; series mostly up to 57.5 µM; activity change, positive = activation: at the top concentration
Outline: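 Luminescence was read after Dual-Glo reagent and a 10 min room-temperature incubation. Values were normalized to vehicle (0% activity) and zero RLU (-100% activity). Reporter HEK293 cells had been exposed to compounds (up to 57.5 uM final) for 24 h.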

Activity change, positive = activation, inactive:
COc1ccc(OC)c(NC(=O)Cn2c(=O)cc(C)c3c(C)nn(-c4cccc(Cl)c4C)c32)c1 -15.6%
O=C(CN1C(=O)CCSc2ccccc21)Nc1ccc(C(F)(F)F)cc1 -41.5%
CCOc1ccccc1C(=O)Nc1ccc(S(=O)(=O)N(Cc2ccccc2)c2ccccc2)cc1 19.9% [at 11.5 µM, percent change from vehicle, -100% = no light]
CCOC(=O)c1ccccc1NC(=O)Cn1ccn2nc(-c3ccc(OCC)cc3)cc2c1=O -8.5%
Cc1ccc(-n2cc(C(=O)OCc3ccc(F)c(F)c3)c3ccccc3c2=O)cc1 -11.2%
CCCN1Cc2cccc(C(=O)Nc3ccccc3C(=O)OC)c2C1=O -9.9%
CCOc1ccc(NC(=O)CN2CCN(CC(=O)Nc3ccc(F)cc3F)CC2)cc1 8.86%
Cc1ccc(O)cc1 5.76%
CCS(=O)(=O)c1cccc(C(=O)Nc2ccc(-c3nc4ccccc4s3)c(O)c2)c1 -1.51%
COc1ccc(-c2csc(-c3c(N)c(C(=O)c4ccccc4)n4ccccc34)n2)cc1OC -8.34%
COc1ccccc1N1CCN(C(=O)CSc2nc3ccccc3nc2Cc2ccc(C)cc2)CC1 -12.3%
COc1cc(NS(=O)(=O)c2cc(Br)cc3c2N(C(=O)C2CC2)CC3)cc(OC)c1 -96.2%
CN(C)c1nc(N(C)C)nc(N(C)C)n1
COc1cc(N2CCC(C(N)=O)CC2)ccc1Nc1nc(N)c(Cl)c(Nc2ccccc2S(=O)(=O)C(C)C)n1 -30.2%
CCN(CCCNC(=O)c1nn(-c2ccc(OC)c(Cl)c2)c(=O)c2c1c1ccccc1n2C)c1ccccc1 -17.2%
Cc1ccc(CN2CCN(C3CCN(S(=O)(=O)N(C)C)CC3)C(=O)C2=O)cc1 3.18%
CC1CCN(C(=O)Cn2c(SCC(=O)Nc3ccc(F)cc3)nc3ccccc32)CC1 0%
COc1ccc(OC)c(CNC(=O)CSc2c3c(nc4cc(Cl)ccc24)CCCC3)c1 -21%
O=C(Nc1cccc(C(F)(F)F)c1)Nc1ccc2snnc2c1 -62%
CCOC(=O)c1c(NC(=O)c2ccc(S(=O)(=O)N(CC)CC)cc2)sc2c1CCCCC2 -17.4%
Cc1cc(S(=O)(=O)Nc2ccc(O)c(Sc3nc4ccccc4s3)c2)ccc1Cl -18.4%
CCc1ccc(CN(Cc2cn[nH]c2-c2ccc(OC)cc2)C(=O)Nc2ccc(Br)cc2)cc1 -58.1%
CN(C)c1ccc(C(CNS(=O)(=O)c2ccc(F)cc2F)N2CCOCC2)cc1 (centres undefined) -21.1%
Cc1ccc(CCNC(=O)CN(c2ccc(C(C)C)cc2)S(=O)(=O)c2c(C)nn(C)c2C)cc1 -10.9%
CCN(CC)C(=O)CSc1nc2cc3c(cc2c(=O)n1CCCC(=O)NCc1ccc(OC)cc1)OCO3 -15.3%
CCOc1ccc(Cc2cc([C@@H]3O[C@H](CO)[C@@H](O)[C@H](O)[C@@H]3O)ccc2Cl)cc1 -3.89%
O=C(NCCC1=CCCCC1)c1ccc2c(c1)N(Cc1ccccc1)C(=O)c1ccccc1S2=O (centres undefined) -33.8%
CCn1c(SCC(=O)Nc2c(C)cccc2C)nnc1-c1nonc1NC(C)=O -18.3%
Cc1ccc(C(=O)N2CCCCC2CCN2CCCCC2)cc1 (centres undefined) -3.3%
CSc1nnc2n(-c3cccc(C)c3)c(=O)c3c4c(sc3n12)CCCC4 -0.982%
COc1ccc(S(=O)(=O)c2c(O)c(C)cc(NC(=O)c3ccccc3)c2C(C)C)cc1 -22.3%
CCn1c(=O)n(CC)c2cc(N3CCCC3)c(NC(=O)Nc3cc(C)cc(C)c3)cc21 -42.7%
COc1ccccc1N1CCN(C(=O)c2ccc(Nc3nc4ccccc4n4nnnc34)cc2)CC1 -22.1%
O=C(Nc1ccccc1F)c1oc2ccccc2c1NC(=O)c1c(F)cccc1F -4.81%
Cc1cccn2c(=O)cc(COc3cccc(NC(=O)c4cccc(Cl)c4)c3)nc12 -4.71%
Cc1c(C(=O)Nc2cccc(-c3nc4ccccc4s3)c2)oc2ccc(F)cc12 -6.93%
CCn1c(CN2CCCCC2)nc2cc(NC(=O)c3cccc([N+](=O)[O-])c3)ccc21 -2.51%
COc1cc(-c2nc(C(N)=O)c3c(n2)n(-c2cccc(C)c2)c(=O)n3C)cc(OC)c1OC -14.1%
Cc1ccc(CNC(=O)c2nn(C)c3c2CSc2ccc(C)cc2-3)cc1 -0.246%
N#Cc1cccc(NC(=O)C2CCN(c3nc(-c4ccc(Cl)cc4)no3)CC2)c1 -61.7%
Cc1ccc(CCNC(=O)CSCc2nc(-c3ccc(C)cc3)oc2C)cc1 -19.4%
COC(=O)c1ccccc1NC(=O)c1ccc(=O)n(Cc2cccc(C)c2)c1 -25.5%
CCOc1ccc(-c2nnc(SCC(=O)Nc3cc(C)ccc3OC)o2)cc1 -43.8%
CC(C)c1ccc(NC(=O)Cn2c3ncccc3c(=O)n2-c2ccccc2)cc1 -4.11%
CC(C)c1ccc(OCC(=O)NCC(c2ccc(Cl)cc2)N2CCOCC2)cc1 (centres undefined) -31.4%
CCOC(=O)C1=C(CN2CCN(C)CC2)NC(=O)NC1c1ccc(F)cc1 (centres undefined) -9.09%
COc1ccc(N2C(N)=C(C#N)C(c3cc(CN4CCOCC4)cs3)C3=C2CCCC3=O)cc1 (centres undefined) -2.82%
Cc1nc2c(C(=O)NCCc3ccc(Cl)cc3)cnn2c(C)c1Cc1ccc(F)cc1 -38%
CC(C)NC(=O)C1CCN(C(=O)c2cnn(-c3ccccc3)c2-n2cccc2)CC1 -14.6%
Cc1ccc(NS(=O)(=O)c2ccc3c(c2)C(C(C)C)C(=O)N3)cc1C (centres undefined) -5.31%
COc1ccc(NS(=O)(=O)c2ccc(-n3cccn3)cc2)cc1OC -89.9%
CCCSc1nc2sc3c(c2c(=O)n1-c1ccc(C)c(Cl)c1)CCN(C(C)=O)C3 -19.8%
COc1nccc(-c2c(-c3ccc(F)cc3)ncn2C2CCNCC2)n1 -17.8%
CN(C(=O)c1cc2nc(-c3ccc4c(c3)OCO4)cc(C(F)(F)F)n2n1)c1ccc(OC(F)(F)F)cc1 5.21%
Cn1nc(C(=O)NCCc2ccc(Cl)cc2)c2c1-c1ccccc1SC2 -9.11%
CN(Cc1ccccc1)C(=O)CSc1nc(-c2ccc(F)cc2)cc(C(F)(F)F)n1 -37%
O=C(Nc1nnc(S(=O)(=O)N2CCc3ccccc32)s1)c1cccc(Cl)c1 -81%
CCCC(CCC)C(=O)NC1CC(=O)N(c2ccc3c(c2)OCCO3)C1 (centres undefined) -19.4%
Cc1ccc(/C=C(\C#N)c2nc3ccccc3c(=O)[nH]2)cc1 -11.4%
